Source: PubChem BioAssay AID463173 (ICCB-Longwood Screening Facility, Harvard Medical School, 2010)
Among all 52,000 compounds or so, about 1,700 (3.3%) were called active. No stated cut-off is given here; in the data, active means survival mostly below about 52% (no sharp cut-off); inactive means mostly above about 56%. The list shows a part of the results.

System: Wild type
Test: S. aureus survival, RN4220 and DeltatarO strains – OD600, teichoic acid synthesis inhibitors, primary screen (AID 463173)
Conditions: S. aureus RN4220 wild type/DeltatarO growth, OD600, 18 h, stronger effect = lower value, screened at 18.75 µg/mL (by protocol)

SMILES	survival
Cn1ncc(N)c1C(=O)N1CCOCC1	inactive: 111%
CN(C)C(=O)CNCC1CCCO1 (stereo not drawn)	inactive: 89%
COc1ccc(N(CC(=O)Nc2cccc(Cl)c2)S(=O)(=O)c2c(C)[nH]c(=O)[nH]c2=O)cc1	inactive: 76%
CCOc1ccc(Nc2nc(-c3cccc(Cl)c3)c3c(n2)-c2ccccc2OC3)cc1	inactive: 92%
COc1ccc2c(c1)c1c(c(=O)n(Cc3ccccc3)c(=O)n1CC(=O)Nc1ccccc1OC)n2C	inactive: 71%
CCn1c(C)c(C)c2cc(C(=O)NCC(C)c3ccccc3)ccc21 (stereo not drawn)	inactive: 99%
O=C(c1ccc2c(Cl)c3c(nc2c1)CCCC3)N1CCN(c2ccc(Cl)cc2)CC1	inactive: 90%
COc1ccc(N2CCN(CCCNC(=O)C3COc4ccccc4C3)CC2)cc1 (stereo not drawn)	inactive: 129%
O=C(Nc1nc2c(F)cc(F)cc2s1)c1ccc(S(=O)(=O)N2CCc3ccccc32)cc1	inactive: 82%
Cc1ccc(CNC(=O)CSc2nc3c(sc4ccccc43)c(=O)n2CCCC(=O)NCCO)cc1	inactive: 87%
CCc1ccccc1N=C1SCC(=O)N1C	inactive: 92%
O=C(Nc1ccc(F)cc1)Nc1csc2c1CCCC2	inactive: 12%
COC(=O)c1ccc(N2C(=O)Cc3cc(OC)c(OC)cc3C2c2ccc(F)cc2)cc1 (stereo not drawn)	inactive: 78%
CCN1C(C(=O)c2ccccc2)=C(OC(=O)COc2ccc(C)cc2)c2ccccc2S1(=O)=O	inactive: 85%
CCOc1ccc(-n2c(=O)c3c4c(sc3n(CC(=O)NC(C)CC)c2=O)CCCCC4)cc1 (stereo not drawn)	inactive: 91%
Cc1c(CCNC(=O)c2c(F)cccc2F)sc2nc(-c3ccc(F)cc3)nn12	inactive: 127%
CCOc1ccc(CCn2c3c(c(=O)[nH]c2=O)C(NC(=O)c2cccc(F)c2)(C(F)(F)F)C(=O)N3)cc1OCC (stereo not drawn)	inactive: 91%
O=C(NCc1cccnc1)c1cccc(C(=O)NCc2cccnc2)c1	inactive: 110%
COc1cc(-c2nc3sccn3c2Nc2c(C)cccc2C)ccc1O	inactive: 108%
Cc1nc2c3cc(F)ccc3n(C)c2s1	inactive: 105%
Cn1ncc2c(N3CCN(c4ccc(F)cc4)CC3)ncnc21	inactive: 73%
O=C(Cc1ccc(-c2ccccc2)cc1)NCCS(=O)(=O)N1CCN(c2ccc(F)cc2)CC1	inactive: 73%

SMILES	survival
CC(=O)N1CCCc2ccc(NS(=O)(=O)c3cccc(Cl)c3)cc21	inactive: 74%
CCn1c(C(=O)NCCc2ccc(S(N)(=O)=O)cc2)cc2sc(Cl)cc21	inactive: 88%
O=C1Cc2cc(S(=O)(=O)N3CCN(c4cccc(Cl)c4)CC3)ccc2N1	inactive: 90%
CC(=O)N1CCCC1c1nc2ccccc2n1Cc1ccccc1Cl (stereo not drawn)	inactive: 86%
CCC1CN(C(=O)N2CCC(C(=O)NCCc3ccc(OC)cc3OC)CC2)c2cc(C)ccc2O1 (stereo not drawn)	inactive: 118%
Cc1cccc(OCc2nc(CC(=O)Nc3ccc(Cl)cc3)cs2)c1	inactive: 92%
Cc1cc(Nc2ccc(Br)cc2)nc(C)n1	inactive: 84%
Cc1cccc(C)c1-n1ncc(C(=O)NCCCN2CCC(C)CC2)c1C1CCN(C(=O)OC(C)(C)C)CC1	inactive: 63%
CCOC(=O)c1cnc2c(ccc3ccccc32)c1Nc1ccc(C(C)=O)cc1	active: 0%
COc1cccc(CSc2nc3ccncc3n2CC(=O)Nc2ccc(OC)c(OC)c2OC)c1	inactive: 122%
COc1ccccc1CNC(=O)Cc1csc2nc(-c3ccc(F)cc3)cn12	inactive: 85%
Cc1ccc(NC(=O)c2ccco2)cc1NC(=O)CSc1ncnc2sc3c(c12)CCC3	inactive: 101%
O=S(=O)(c1ccc(Cl)cc1)c1nc(-c2cccs2)oc1N1CCCCC1	inactive: 45%
CCc1cc2c(cc3c(=O)n(CC(=O)NC(C)c4ccccc4)ncn32)s1 (stereo not drawn)	inactive: 83%
CCc1ccccc1NC(=O)C1CCN(S(=O)(=O)c2cn(C)cn2)CC1	inactive: 74%
CCOC(=O)c1sc2ccccc2c1S(=O)(=O)NCc1ccccc1OC	inactive: 69%
COc1cccc(NC(=O)CCN2C(=O)c3ccccc3Sc3ncccc32)c1	inactive: 116%
Cc1cc(C)nc(-n2nc(C)c3c2N(Cc2ccccc2F)C(=O)CC3c2ccc(Cl)cc2)n1 (stereo not drawn)	inactive: 115%
CCC(=O)N1CCc2cc(Br)cc(S(=O)(=O)NCCc3cccc(C)c3)c21	inactive: 99%
Cc1cccc(C(=O)Nc2cc3c(cc2C)n(C)c(=O)n3C)c1	inactive: 74%
Cc1nnc(N2CCN(C(=O)NCCC(C)C)CC2)c2nn(-c3ccc(Cl)cc3)c(C)c12	inactive: 87%
CCc1ccc(S(=O)(=O)Nc2cccc(-c3ccc(N4CCCCC4)nn3)c2)s1	inactive: 71%

SMILES	survival
O=C1C(c2ccc(F)cc2)N(CCc2ccc(Cl)cc2)C(=O)CN1C1CCCCC1 (stereo not drawn)	inactive: 69%
Cc1cc(C)c2nc(C)cc(Nc3cccc(C(=O)O)c3)c2c1	inactive: 69%
CCOc1cc(C(=O)Nc2cc3c(cc2N2CCCC2)n(C)c(=O)c(=O)n3C)cc(OCC)c1OCC	inactive: 79%
O=C(Nc1sc2c(c1C(=O)NCc1ccco1)CCCC2)c1cc(=O)c2cc(Cl)ccc2o1	inactive: 79%
CCC(=O)NCC1(c2ccccc2)CCCC1	inactive: 102%
O=C(c1ccccc1)N1CCN(S(=O)(=O)c2ccccc2)CC1	inactive: 101%
COc1ccc(NC(=O)Nc2cc(-c3cn4cccnc4n3)ccc2C)cc1	inactive: 91%
O=C(NC1CCN(Cc2ccccc2)CC1)c1ccc(Cn2c(=O)c3ccccc3n(Cc3ccc(Cl)cc3)c2=O)cc1	inactive: 80%
CC(=O)N1CCc2c(sc3c2c(=O)n(-c2ccccc2)c(=O)n3CC(=O)c2ccccc2)C1	inactive: 89%
CC(=O)N1CCC(N(Cc2ccc(C)o2)C(=O)Nc2cccc(C(F)(F)F)c2)CC1	inactive: 63%
Cc1ccc2c(c1)-c1nc(-c3ccc4c(c3)NC(=O)CO4)cc(-c3ccccc3)c1CO2	inactive: 80%
O=C(CCCCn1c(=O)c2ccccc2n(Cc2cccc(F)c2)c1=O)NCCc1ccccc1	inactive: 108%
Cc1ccc(C)c(NC(=O)CN2C(=O)CCc3cc(S(=O)(=O)N4CCCCC4)ccc32)c1	inactive: 22%
CC(=O)Nc1ccc(NC(=O)c2ccc3c(c2)N(Cc2cccc(Cl)c2)C(=O)c2ccccc2S3=O)cc1 (stereo not drawn)	inactive: 66%
Cc1ccc(Cn2c(=O)n(Cc3ccccc3)c(=O)c3oc4ccccc4c32)cc1	inactive: 86%
CC(=O)N1CCc2cc(S(=O)(=O)NC(Cc3ccccc3)C(=O)NCc3ccccc3)ccc21 (stereo not drawn)	inactive: 85%
O=C(CC1N=C2c3ccccc3N=C(SCc3ccc(F)cc3)N2C1=O)NCCc1ccccc1 (stereo not drawn)	inactive: 58%
Cc1cccc(Cn2c(-c3ccccc3)nc3ccccc32)c1	active: 26%
O=C(CSc1nccn1-c1ccc(F)cc1)Nc1nc2ccccc2s1	inactive: 97%
COc1ccc2[nH]c3c(c2c1)CCN(C(=O)CCC1CCCC1)C3c1ccc(F)cc1 (stereo not drawn)	inactive: 64%
CC(C)(C)OC(=O)N1CCC(c2c(C(=O)N3CCN(c4ccccn4)CC3)cnn2-c2ccc(F)cc2F)CC1	inactive: 71%
Cc1ccc(-c2cnc(C3CC3)o2)cc1S(=O)(=O)Nc1cccc(C)c1C	inactive: 84%

SMILES	survival
CC(C)(C)c1ccc(C(=O)NCC(=O)OCc2cc(=O)n3nc(C4CC4)sc3n2)cc1	inactive: 94%
O=C(CSc1ncnc2c1cnn2-c1ccccc1)c1ccccc1	inactive: 108%
CCN1CCN(c2csc3ccc(Br)cc3c2=O)CC1	inactive: 83%
COc1ccc(NC(=O)C2CCCN(S(=O)(=O)c3c(C)[nH]c(=O)[nH]c3=O)C2)cc1OC (stereo not drawn)	inactive: 130%
CCCCCn1cnc2c1c(=O)[nH]c(=O)n2C	inactive: 115%
Cc1ccc(NC(=O)C2CCCN(c3ncnc4c3nc3n4CCCCC3)C2)c(Br)c1 (stereo not drawn)	inactive: 82%
CCn1c(=O)c2cc(C(=O)NCc3cc(OC)ccc3OC)sc2c2ccccc21	inactive: 86%
COC(=O)c1c(NC(=O)c2ccc(OC)cc2OC)sc2c1CCCCC2	inactive: 56%
COc1ccc(CC(C)NS(=O)(=O)c2ccc3c(c2)CCN3S(C)(=O)=O)cc1OC (stereo not drawn)	inactive: 134%
COc1ccc(Cl)cc1NCc1nnc2n1CCCCC2	active: 0%
COc1ccc(NC(=O)c2oc3ccccc3c2NC(=O)c2cc(=O)c3cc(Cl)ccc3o2)cc1	inactive: 84%
CN(C)CC(C)(C)C1OCC2(CO1)COC(C(C)(C)CN(C)C)OC2 (stereo not drawn)	inactive: 110%
CCOc1ccc2nc(NC(=O)c3nc(SCc4ccccc4F)ncc3Cl)sc2c1	inactive: 95%
Cc1cc(C)cc(-n2c(SCC(=O)Nc3ccccc3)nc3c(oc4ccccc43)c2=O)c1	inactive: 128%
O=Nc1c(O)n2c3c(cccc13)CCC2	inactive: 124%
COc1ccc2c(CNCc3cccs3)c(C(=O)O)n(Cc3ccc(F)cc3)c2c1	inactive: 83%
Cc1ccc(-n2nc3c(=O)n(C(C)C(=O)NCc4ccc(OC(C)C)cc4)nc(C)c3c2C)cc1 (stereo not drawn)	inactive: 93%
O=C(NCc1ccc(Cl)cc1)C1CCN(S(=O)(=O)c2cccc3nonc23)CC1	inactive: 111%
CCC(Cc1ccccc1)NC(=O)Cn1nc(C)n2c(cc3occc32)c1=O (stereo not drawn)	inactive: 79%
CC(C)Cn1cc(NC(=O)N2CCN(c3ccc(F)cc3)CC2)c2ccccc2c1=O	inactive: 73%
CC(=O)c1ccc(NC(=O)CSC2=Nc3ccccc3N=C(c3ccc(F)cc3)C2)cc1	inactive: 72%
CCCCn1c(=O)n(CC2CCC(C(=O)NCCCOC)CC2)c(=O)c2sccc21 (stereo not drawn)	inactive: 92%
